In all, about 310,000 compounds went through this assay and about 2,200 (0.71%) showed an effect of 50% or more. The effect is printed as a negative number. This is one part of the list.

We go through 45 molecules from article PMC4336329 (PLoS ONE, 2015).

For this test, the target named is human ether-à-go-go-related gene (hERG) potassium channel (human, UniProt Q12809). The experiment in a line: primary screen, population patch clamp on CHO cells stably expressing hERG.
Chain of human ether-à-go-go-related gene (hERG) potassium channel (Q12809 whole entry, looked up): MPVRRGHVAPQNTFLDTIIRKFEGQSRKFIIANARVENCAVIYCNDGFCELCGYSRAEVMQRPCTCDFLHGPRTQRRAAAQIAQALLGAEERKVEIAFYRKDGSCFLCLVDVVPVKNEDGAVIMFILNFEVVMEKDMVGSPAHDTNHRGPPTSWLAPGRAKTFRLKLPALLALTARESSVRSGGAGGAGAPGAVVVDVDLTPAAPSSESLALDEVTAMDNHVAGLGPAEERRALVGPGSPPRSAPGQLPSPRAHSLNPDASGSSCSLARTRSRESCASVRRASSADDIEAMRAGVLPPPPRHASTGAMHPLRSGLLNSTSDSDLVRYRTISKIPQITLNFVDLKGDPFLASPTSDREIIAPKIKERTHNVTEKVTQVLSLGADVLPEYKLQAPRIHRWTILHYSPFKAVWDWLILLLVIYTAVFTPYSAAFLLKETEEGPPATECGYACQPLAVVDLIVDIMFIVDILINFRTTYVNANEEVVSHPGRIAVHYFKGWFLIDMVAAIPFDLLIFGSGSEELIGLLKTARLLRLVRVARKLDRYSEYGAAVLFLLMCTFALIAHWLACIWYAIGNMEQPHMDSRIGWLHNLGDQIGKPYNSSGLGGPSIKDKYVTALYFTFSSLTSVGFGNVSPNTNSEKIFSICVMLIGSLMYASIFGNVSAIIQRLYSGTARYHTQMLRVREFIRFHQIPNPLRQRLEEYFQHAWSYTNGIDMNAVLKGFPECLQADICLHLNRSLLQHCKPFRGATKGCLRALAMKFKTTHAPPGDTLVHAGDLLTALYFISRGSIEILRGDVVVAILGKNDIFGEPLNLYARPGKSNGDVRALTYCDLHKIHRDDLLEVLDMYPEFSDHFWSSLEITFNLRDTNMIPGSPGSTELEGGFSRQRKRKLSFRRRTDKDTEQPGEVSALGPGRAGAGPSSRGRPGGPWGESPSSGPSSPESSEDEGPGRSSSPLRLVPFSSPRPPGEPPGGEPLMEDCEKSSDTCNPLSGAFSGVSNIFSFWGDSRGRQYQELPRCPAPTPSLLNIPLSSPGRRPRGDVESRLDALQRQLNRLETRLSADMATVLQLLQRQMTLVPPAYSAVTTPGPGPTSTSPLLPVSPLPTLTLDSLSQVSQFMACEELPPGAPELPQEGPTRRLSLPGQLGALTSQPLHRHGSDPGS
For the molecule `CC(=O)Oc1ccc2ccccc2c1C(NC(=O)C(C)C)c1cccc([N+](=O)[O-])c1` (stereo not drawn), the “hERG current change (%, negative = inhibition) at 1uM” value is on record as 6.94%.
As for `COc1ccc(CN2CCNC(=O)C2CC(=O)NCCSc2nccn2C)cc1OC` (stereo not drawn), the “hERG current change (%, negative = inhibition) at 1uM” value came to 20.3%.
Consider `Cc1cc(C)n(C(=O)CCCn2nc(C)c([N+](=O)[O-])c2C)n1`, for which the “hERG current change (%, negative = inhibition) at 1uM” value worked out at 6.87%.
As to `CCC(=O)Nc1cc(ON=C(C)C)cc([N+](=O)[O-])c1`, the “hERG current change (%, negative = inhibition) at 1uM” value worked out at 7.72%.
Take `CC(C)CCN1C(=O)CCC1(C)C(=O)NC1CCCCCCC1` (stereo not drawn): the “hERG current change (%, negative = inhibition) at 1uM” value was 13.5%.
For `CCn1c2ccccc2c2cc(NC(=O)CSc3nnnn3-c3ccccc3)ccc21`, the “hERG current change (%, negative = inhibition) at 1uM” value is 9.35%.
In the case of `CCN(CC(=O)Nc1ccc(NC(C)=O)cc1)C(=O)COc1ccc2ccccc2c1`, the “hERG current change (%, negative = inhibition) at 1uM” value is -0.679%.
With `O=C(O)CSc1ccnc2cc(Cl)ccc12` the figure was 14.8%; with `COC(=O)C1=C(C)N(CC(C)C)C(=O)C1`, 2.85%; with `CCOc1ccc(C(=O)NCC(c2ccco2)N2CCOCC2)cc1` (stereo not drawn), 9.87%.
As to `Cc1cc(-c2cc(C(=O)NC3CCCC3)on2)nc(NC2CCCC2)n1`, the “hERG current change (%, negative = inhibition) at 1uM” value turned out to be 6.28%.
`COc1ccc(-c2cc(=O)oc3cc(OC(C)C(=O)NCCCn4ccnc4)ccc23)cc1` (stereo not drawn): the “hERG current change (%, negative = inhibition) at 1uM” value is -7.88%.
For `O=C1CN(C(=O)CSc2nc(-c3ccc(Cl)cc3)cs2)c2ccccc2N1` the value was 8.81%; for `CN1C(=O)c2ccccc2N(C)C1c1cccs1` (stereo not drawn), 9.75%.
For the molecule `Cc1ccc(S(=O)(=O)N(C)C)cc1NC(=O)c1cncc(Br)c1`, the “hERG current change (%, negative = inhibition) at 1uM” value came to 6.93%.
As for `CC(=O)Nc1ccc(NC(=O)CSc2nnc(-c3cccnc3)o2)cc1`, the “hERG current change (%, negative = inhibition) at 1uM” value is listed as 9.05%.
For `COc1ccc(-n2nc([N+](=O)[O-])c(=NCCc3ccccc3)n2O)cc1` the value was 2.77%; for `CC(NC(=O)CSc1nc2ccccc2n1CCC#N)c1ccc(F)cc1` (stereo not drawn), 0.936%; for `CCN(CC)CCN1C(=O)C2C(C(=O)Nc3cc(C)cc(C)c3)C3C=CC2(O3)C1C(=O)NC1CCCCC1` (stereo not drawn), 14.1%.
Turning to `COc1ccc2c(c1)c(=O)c(Br)c(C)n2Cc1ccccc1`, the “hERG current change (%, negative = inhibition) at 1uM” value was found to be 19.2%.
As for `COc1ccc(-n2c(SCC(N)=O)nnc2-c2ccco2)cc1`, the “hERG current change (%, negative = inhibition) at 1uM” value worked out at 15.6%.
With `Cc1csc(SCC(=O)N2CCCC2)n1` the figure was 7.19%; with `CCCCC[C@H](O)/C=C/[C@@H]1[C@@H](C/C=C\CCCC(=O)O)[C@H]2CO[C@@H]1C2`, 7.16%.
Regarding `CC(C)(C)OC(=O)N1CCC(c2c(C(=O)O)cnn2-c2ccccc2Cl)CC1`, the “hERG current change (%, negative = inhibition) at 1uM” value is given as -1.08%.
With `CCOC(=O)C1=C(C)Nc2ccccc2N=C1NC(=O)C(c1ccccc1)c1ccccc1` the figure was 10.8%; with `COc1ccc(C(=O)C2CCCN(C(=O)/C=C/c3cnc[nH]3)C2)c(C)c1` (stereo not drawn), 15.2%.
Turning to `CCOc1cc(CNCCc2c[nH]c3ccccc23)cc(Cl)c1OCC`, the “hERG current change (%, negative = inhibition) at 1uM” value turned out to be 8.88%.
Turning to `Cc1[nH]c2ccccc2c1C1=CCNCC1`, the “hERG current change (%, negative = inhibition) at 1uM” value came out at 3.85%.
As for `Cc1ccc(S(=O)(=O)N(C)Cc2ccc(-c3nnc4n3CCC4)cc2)cc1`, the “hERG current change (%, negative = inhibition) at 1uM” value stood at 0.889%.
`COc1cc(OC)c2c(-c3ccccc3)cc(=O)oc2c1C(CCN1CCCC(C)C1)c1ccc2c(c1)OCO2` (stereo not drawn): the “hERG current change (%, negative = inhibition) at 1uM” value is 10.4%.
As to `O=C(COc1ccccc1F)Nc1cc(S(=O)(=O)N2CCOCC2)ccc1N1CCOCC1`, the “hERG current change (%, negative = inhibition) at 1uM” value is 5.08%.
Regarding `CCC(CC)C(=O)c1c[nH]c(C(=O)NCC2CCCO2)c1` (stereo not drawn), the “hERG current change (%, negative = inhibition) at 1uM” value came out at 6.11%.
Consider `CC(C)c1cccc(OCCN2CCCC2)c1`, for which the “hERG current change (%, negative = inhibition) at 1uM” value is on record as 11.7%.
For `Cc1nc2nc(SCC(=O)NCCN3CCOCC3)nn2c(C)c1Cc1ccccc1`, the “hERG current change (%, negative = inhibition) at 1uM” value is recorded as 12.3%.
On to `COc1ccccc1C(=O)N1C(CC(=O)Nc2ccccc2C)C(=O)NC2CCCCC21` (stereo not drawn), for which the “hERG current change (%, negative = inhibition) at 1uM” value came out at 13.1%.
Take `O=C(O)C(=O)O.O=C(c1ccccc1F)N1CCN(C2CCC(c3ccccc3)CC2)CC1` (stereo not drawn): the “hERG current change (%, negative = inhibition) at 1uM” value was -0.839%.
For `CC(=O)c1cc(C)ccc1OC(=O)CN1C(=O)c2ccccc2C1=O`, the “hERG current change (%, negative = inhibition) at 1uM” value is listed as 18.6%.
With `COc1ccc(N2CCN(C(=O)COC(=O)c3ccc(CSC)o3)CC2)cc1`, the “hERG current change (%, negative = inhibition) at 1uM” value was -4.64%.
Turning to `CCCCNS(=O)(=O)c1ccc(NC(=O)C2c3ccccc3Oc3ccccc32)cc1`, the “hERG current change (%, negative = inhibition) at 1uM” value came out at 8.23%.
Consider `Cl.Fc1ccccc1N1CCN(C(c2cccs2)c2nnnn2CCc2ccccc2)CC1` (stereo not drawn), for which the “hERG current change (%, negative = inhibition) at 1uM” value is recorded as 10.2%.
Regarding `CNC(=O)COc1coc(CN2CCN(Cc3ccccc3)CC2)cc1=O`, the “hERG current change (%, negative = inhibition) at 1uM” value came to 8.11%.
For `CC(C)(Oc1ccc(Cl)cc1)C(=O)NC1CCCCC1`, the “hERG current change (%, negative = inhibition) at 1uM” value turned out to be 5.45%.
`Cn1c(O)c(C(=Nc2ccc(F)cc2)c2ccccc2)c(=O)n(C)c1=O`: the “hERG current change (%, negative = inhibition) at 1uM” value is reported as 7.7%.
Regarding `O=C(c1ccco1)N1CCN(C(=O)c2ccccc2[N+](=O)[O-])CC1`, the “hERG current change (%, negative = inhibition) at 1uM” value worked out at 12.7%.
For `CS(=O)(=O)c1ccc(C(=O)Nc2cc(S(C)(=O)=O)ccc2Cl)cc1` the value was 13.1%.
